{"source": "the supplement of paper PMC9446081", "note": "The campaign covered roughly 39,000 compounds. About 220 (0.56%) showed activity. Some of the results follow.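 Further: static incubation at 37 °C against the wild-type strain, values averaged over two biological replicates.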", "data": [{"tested_on": "Escherichia coli K-12 BW25113", "assay": "relative growth (OD600 normalised to plate interquartile mean) (fraction); higher = less growth inhibition, active = 0.2 or less", "conditions": "50 µM; LB; incubation time: overnight (16-24 h)", "values": [{"molecule": "C[C@H]1CN([C@@H](C)CO)C(=O)c2cc(NC(=O)Nc3ccccc3)ccc2O[C@H]1CN(C)C(=O)Nc1cccc2ccccc12", "relative growth": "inactive: 0.954"}, {"molecule": "N#CC1CC2CC2N1C(=O)C(N)C12CC3CC(CC(O)(C3)C1)C2", "note": "(stereo unspecified)", "relative growth": "inactive: 1.06"}, {"molecule": "C[C@@H]1CN([C@H](C)CO)C(=O)c2cc(NC(=O)Nc3ccc(F)cc3)ccc2O[C@@H](C)CCCCO[C@H]1CN(C)S(=O)(=O)c1cccs1", "relative growth": "inactive: 1.1"}, {"molecule": "CCC=CCC=CCC=CCC=CCC=CCCCC(=O)OCC", "note": "[OMEGA-3-ACID ESTERS (EPA shown)]", "relative growth": "inactive: 0.902"}, {"molecule": "C[C@@H]1CN([C@@H](C)CO)C(=O)c2cc(C#Cc3ccccc3F)cnc2O[C@@H]1CN(C)S(=O)(=O)c1ccccc1F", "relative growth": "inactive: 1.04"}, {"molecule": "Nc1[nH]ncc1-c1cc(Cl)ccc1Oc1cc(F)c(S(=O)(=O)Nc2cscn2)cc1Cl", "relative growth": "inactive: 0.983"}, {"molecule": "O=C(C[C@H]1CC[C@H]2[C@@H](COC[C@@H](O)CN2S(=O)(=O)c2cccc(F)c2)O1)NCCCN1CCOCC1", "relative growth": "inactive: 0.988"}, {"molecule": "CNC[C@@H]1OCCCC[C@@H](C)Oc2ccc(NS(=O)(=O)c3c(C)noc3C)cc2C(=O)N([C@H](C)CO)C[C@@H]1C", "relative growth": "inactive: 0.977"}, {"molecule": "C[C@@H]1CN([C@H](C)CO)C(=O)c2cccc(NC(=O)C3CCCCC3)c2O[C@H]1CN(C)Cc1ccc(-c2ccccc2)cc1", "relative growth": "inactive: 1.02"}, {"molecule": "COc1cccc(NC(=O)N[C@H]2C=C[C@H](CC(=O)N3CCN(C)CC3)O[C@@H]2CO)c1", "relative growth": "inactive: 1.03"}, {"molecule": "C[C@H]1CN([C@@H](C)CO)C(=O)Cc2cc(NC(=O)c3ccncc3)ccc2O[C@@H]1CN(C)C(=O)NC1CCCCC1", "relative growth": "inactive: 1.01"}, {"molecule": "C[C@@H]1CCCCO[C@@H](CN(C)C(=O)Nc2cccc3ccccc23)[C@H](C)CN([C@H](C)CO)C(=O)c2cc(NC(=O)Nc3ccc(C(F)(F)F)cc3)ccc2O1", "relative growth": "inactive: 1.01"}, {"molecule": "C[C@@H]1CCCCO[C@@H](CN(C)C(=O)Cc2ccccc2)[C@H](C)CN([C@H](C)CO)C(=O)c2cc(NC(=O)c3ccccc3)ccc2O1", "relative growth": "inactive: 0.987"}, {"molecule": "COc1ccc(NC(=O)Nc2cccc3c2O[C@@H](CN(C)C(=O)Nc2cccc4ccccc24)[C@H](C)CN([C@@H](C)CO)C3=O)cc1", "relative growth": "inactive: 1.01"}, {"molecule": "O=S(=O)(NCC[C@H]1CC[C@@H](NS(=O)(=O)c2cccc(Cl)c2)[C@@H](CO)O1)c1cccc(F)c1", "relative growth": "inactive: 0.982"}, {"molecule": "C[C@@H]1CN([C@H](C)CO)C(=O)c2cc(C#Cc3ccncc3)cnc2O[C@@H]1CN(C)C(=O)c1ccccc1F", "relative growth": "inactive: 0.978"}, {"molecule": "C=C(C)C1CCC2(C)CCC3(C)C(CCC4C5(C)CCC(O)C(C)(C)C5CCC43C)C12", "note": "(stereo unspecified)", "relative growth": "inactive: 1.03"}, {"molecule": "C#CCN([C@H](/C=C/C1CC1)[C@@H](O)CCn1cc(CCC(=O)NO)nn1)[C@@H](Cc1ccccc1)C(=O)OC", "relative growth": "inactive: 0.994"}, {"molecule": "COC[C@@H]1CNN1C(=O)OC(C)(C)C", "relative growth": "inactive: 1.01"}, {"molecule": "COCC(=O)Nc1ccc2c(c1)OC[C@@H](C)N(Cc1ccccc1F)C[C@H](C)[C@H](OC)CN(C)C2=O", "relative growth": "inactive: 1.01"}, {"molecule": "C[C@H]1CN([C@@H](C)CO)S(=O)(=O)c2ccc(C#Cc3ccc(F)cc3)cc2O[C@H]1CN(C)C(=O)CN(C)C", "relative growth": "inactive: 0.998"}, {"molecule": "C[C@@H]1CN([C@@H](C)CO)C(=O)c2cccc(NC(=O)c3ccc(-c4nccs4)cc3)c2O[C@H]1CN(C)S(=O)(=O)c1cn(C)cn1", "relative growth": "inactive: 1.02"}, {"molecule": "C[C@@H]1CN([C@@H](C)CO)C(=O)Cc2cc(NC(=O)NC3CCCCC3)ccc2O[C@@H]1CN(C)Cc1ccc(Cl)c(Cl)c1", "relative growth": "inactive: 0.992"}, {"molecule": "C[C@H](CO)N1C[C@H](C)[C@@H](CN(C)S(=O)(=O)c2ccccc2)OCCCC[C@H](C)Oc2ccc(NS(=O)(=O)c3cn(C)cn3)cc2C1=O", "relative growth": "inactive: 0.993"}, {"molecule": "FC(F)(F)CN1CCNCC1", "relative growth": "inactive: 0.98"}, {"molecule": "NC(=O)N[C@@H]1CC(=O)N(c2ccccc2)C1", "relative growth": "inactive: 0.921"}, {"molecule": "COc1ccc(NC(=O)N2C[C@H](O)COC[C@H]3O[C@@H](CC(=O)NC4Cc5ccccc5C4)CC[C@@H]32)cc1", "relative growth": "inactive: 0.923"}, {"molecule": "Cc1cc(C(=O)Nc2cccc3c2O[C@H](CN(C)S(=O)(=O)c2ccc(Cl)cc2)[C@@H](C)CN([C@@H](C)CO)C3=O)n(C)n1", "relative growth": "inactive: 1.01"}, {"molecule": "COc1cc(O)cc(OC)c1O[C@@H]1O[C@H](CO)[C@@H](O)[C@H](O)[C@H]1O", "relative growth": "inactive: 1.01"}, {"molecule": "CC(=O)NCCCC[C@@H]1NC(=O)[C@@H]2C[C@H](C(=O)NCCCCCCN(C)C)[C@H](c3ccc(O)cc3)N2C1=O", "relative growth": "inactive: 0.963"}, {"molecule": "C[C@@H]1CN([C@@H](C)CO)S(=O)(=O)c2ccc(C#Cc3ccccc3F)cc2O[C@H]1CN(C)C(=O)Cc1ccncc1", "relative growth": "inactive: 1.02"}, {"molecule": "O=C(NS(=O)(=O)c1ccccc1)c1nnc[nH]1", "relative growth": "inactive: 0.958"}, {"molecule": "Cc1noc(C)c1NC(=O)N(C)C[C@@H]1Oc2ncc(Br)cc2C(=O)N([C@H](C)CO)C[C@@H]1C", "relative growth": "inactive: 0.931"}, {"molecule": "O=C(C[C@@H]1CC[C@@H]2[C@H](COC[C@@H](O)CN2C(=O)c2cnccn2)O1)N1CCN(c2ccccc2)CC1", "relative growth": "inactive: 0.995"}, {"molecule": "O=C(CCCCCNC(=O)OCCCCO[C@@H]1C[C@H](C2CCCCC2)C=C(C(=O)N2CCOCC2)O1)NO", "relative growth": "inactive: 0.992"}, {"molecule": "COc1ccc(NC(=O)Nc2ccc3c(c2)C(=O)N([C@H](C)CO)C[C@H](C)[C@@H](CN(C)Cc2ccccc2)OCCCC[C@@H](C)O3)cc1", "relative growth": "inactive: 1"}, {"molecule": "Cc1noc(C)c1NC(=O)Nc1ccc2c(c1)C(=O)N([C@H](C)CO)C[C@H](C)[C@@H](CN(C)Cc1ccc(C(F)(F)F)cc1)O2", "relative growth": "inactive: 1"}, {"molecule": "CCOC(=O)[C@@H](C)n1ncn2cccc2c1=O", "relative growth": "inactive: 1.01"}, {"molecule": "C[C@H](CO)N1C[C@H](C)[C@@H](CN(C)S(=O)(=O)c2ccccc2)Oc2c(NC(=O)C3CCOCC3)cccc2C1=O", "relative growth": "inactive: 1"}, {"molecule": "C[C@H]1CN([C@@H](C)CO)S(=O)(=O)c2ccc(-c3ccc(C(=O)N(C)C)cc3)cc2O[C@H]1CN(C)C(=O)C1CCC1", "relative growth": "inactive: 1.01"}, {"molecule": "C[C@@H]1CCCCO[C@@H](CN(C)Cc2ccc(Cl)c(Cl)c2)[C@H](C)CN([C@H](C)CO)C(=O)c2cc(NS(=O)(=O)c3ccccc3)ccc2O1", "relative growth": "inactive: 1.01"}, {"molecule": "COCC(=O)N1C[C@H](C)[C@H](OC)CN(C)C(=O)c2cc(NC(=O)Nc3ccccc3)ccc2OC[C@@H]1C", "relative growth": "inactive: 1"}, {"molecule": "C[C@H]1CCCCO[C@H](CN(C)C(=O)C2CCCCC2)[C@@H](C)CN([C@@H](C)CO)C(=O)c2cc(NS(=O)(=O)c3ccc(Cl)cc3)ccc2O1", "relative growth": "inactive: 1.03"}, {"molecule": "CO[C@@H]1CN(C)C(=O)c2ccc(NS(=O)(=O)CC(F)(F)F)cc2OC[C@@H](C)N(Cc2nccs2)C[C@@H]1C", "relative growth": "inactive: 1"}, {"molecule": "Cc1noc(C)c1NC(=O)N(C)C[C@H]1OCCCC[C@H](C)Oc2ccc(NC(=O)C3CCCCC3)cc2C(=O)N([C@@H](C)CO)C[C@H]1C", "relative growth": "inactive: 0.998"}, {"molecule": "C[C@@H]1CN([C@H](C)CO)C(=O)c2c(c3ccccc3n2C)-c2ccccc2CO[C@@H]1CN(C)Cc1ccc2c(c1)OCO2", "relative growth": "inactive: 1.01"}, {"molecule": "O=C(NCc1cccc(F)c1)[C@@H]1[C@@H](CO)[C@@H]2Cn3c(cccc3=O)[C@H]1N2C(=O)c1cnccn1", "relative growth": "inactive: 1.02"}, {"molecule": "C[C@H]1CN([C@@H](C)CO)S(=O)(=O)c2ccc(-c3cncnc3)cc2O[C@H]1CN(C)C(=O)Cc1ccncc1", "relative growth": "inactive: 1.01"}, {"molecule": "C[C@@H]1CN([C@@H](C)CO)C(=O)c2cc(NC(=O)Cc3ccccc3)ccc2O[C@@H](C)CCCCO[C@H]1CN(C)Cc1ccccc1", "relative growth": "inactive: 0.953"}, {"molecule": "CO[C@H]1CN(C)C(=O)c2cc(NS(C)(=O)=O)ccc2OC[C@@H](C)N(C(=O)CN(C)C)C[C@H]1C", "relative growth": "inactive: 0.991"}, {"molecule": "C[C@@H]1CN([C@@H](C)CO)C(=O)c2cc(C#Cc3ccccc3F)cnc2O[C@H]1CN(C)S(=O)(=O)c1ccccc1F", "relative growth": "inactive: 1.04"}, {"molecule": "C[C@@H]1CN([C@H](C)CO)C(=O)CCCn2nncc2CO[C@@H]1CN(C)C(=O)Nc1ccc(C(C)(C)C)cc1", "relative growth": "inactive: 1.01"}, {"molecule": "CO[C@@H]1CN(C)C(=O)c2ccc(NS(=O)(=O)c3ccccc3)cc2OC[C@@H](C)N(C(=O)NC(C)C)C[C@@H]1C", "relative growth": "inactive: 0.977"}, {"molecule": "C[C@H](CO)N1C[C@H](C)[C@H](CN(C)C(=O)Nc2cccc3ccccc23)OCCCC[C@H](C)Oc2ccc(N(C)C)cc2C1=O", "relative growth": "inactive: 1"}, {"molecule": "C[C@@H]1CN([C@@H](C)CO)C(=O)CCCn2nncc2CO[C@@H]1CN(C)C(=O)Nc1ccc(N2CCCCC2)cc1", "relative growth": "inactive: 1"}, {"molecule": "C[C@H](CO)N1C[C@H](C)[C@@H](CN(C)C(=O)Cc2ccncc2)Oc2cc(C#CC3CC3)ccc2S1(=O)=O", "relative growth": "inactive: 1.01"}, {"molecule": "C[C@H](CO)N1C[C@H](C)[C@H](CN(C)S(=O)(=O)c2cn(C)cn2)OCc2ccccc2-c2ccccc2C1=O", "relative growth": "inactive: 0.996"}, {"molecule": "C[C@@H]1CN([C@H](C)CO)C(=O)CCCn2nncc2CO[C@H]1CN(C)C(=O)Nc1ccc(N2CCCCC2)cc1", "relative growth": "inactive: 0.955"}, {"molecule": "N[C@@H]1CC[C@H](CCn2cc(-c3ccccn3)nn2)O[C@H]1CO", "relative growth": "inactive: 0.924"}, {"molecule": "C[C@H](CO)N1C[C@H](C)[C@@H](CN(C)Cc2ccc(Cl)c(Cl)c2)OCCCC[C@H](C)Oc2ccc(NS(=O)(=O)c3cn(C)cn3)cc2C1=O", "relative growth": "inactive: 0.867"}, {"molecule": "COc1ccc(CCNC(=O)[C@@H]2c3ccccc3C(=O)N(Cc3ccccc3OC)[C@H]2c2ccc(CO)cc2)cc1", "relative growth": "inactive: 0.937"}]}]}
